This is one part of the list. Further columns of the screen follow, without active or inactive calls.
Target: Genome polyprotein (Dengue virus type 2 (strain 16681-PDK53)) (UniProt P29991)
Assay: flavivirus cap methylation enzyme inhibition – biochemical, confirmation dose response, primary screen (AID 588689)
Conditions: Dengue-2 NS5 methyltransferase capping enzyme assay, measured here: pilot screen replicate inhibition, at 25 µM, stronger effect = higher value

Compound	inhibition [%]
Cc1cc(C)cc(OCCOc2cccc(C=C3C(=O)NC(=O)NC3=O)c2)c1	17.7
CCOC(=O)c1c(-n2c(C)cc(C=C3C(=O)NC(=O)NC3=O)c2C)sc2c1CCCC2	30.7
Cc1ccc(N2C(=O)NC(=O)/C(=C/c3ccc(OC(=O)c4cccs4)cc3)C2=O)cc1	33.4
Oc1ccc(/C=N/NP(=S)(c2ccccc2)c2ccccc2)c(O)c1O	11.8
